Source: the supplement of paper PMC11098506
± gives the standard deviation of the averaged measurements.

B1: VDAC2; numbered along this chain (parent)
chain: MATHGQTCARPMCIPPSYADLGKAARDIFNKGFGFGLVKLDVKTKSCSGVEFSTSGSSNTDTGKVTGTLETKYKWCEYGLTFTEKWNTDNTLGTEIAIEDQICQGLKLTFDTTFSPNTGKKSGKIKSSYKRECINLGCDVDFDFAGPAIHGSAVFGYEGWLAGYQMTFDSAKSKLTRNNFAVGYRTGDFQLHTNVNDGTEFGGSIYQKVCEDLDTSVNLAWTSGTNCTRFGIAAKYQLDPTASISAKVNNSSLIGVGYTQTLRPGVKLTLSALVDGKSINAGGHKVGLALELEA

Variants of: B1
Experiment: log2 fold difference of barcode abundance, FLAG-VDAC2-high vs FLAG-VDAC2-low sorted fraction (expression level) (log2 ratio); higher = higher VDAC2 variant expression
Conditions: Mcl1-/- Bax-/- Vdac2-/- MEF
Description: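 Deep mutational scan of human VDAC2 (FLAG-tagged) with single amino acid substitutions at positions Q165–F180, each barcoded clone expressed in Mcl1/Bax/Vdac2-deficient MEFs. Cells were stained with PE anti-FLAG and sorted into FLAG-high and FLAG-low fractions, and barcodes were counted by Illumina sequencing. The score is log2(CPM) in FLAG-high minus log2(CPM) in FLAG-low, per barcode; barcodes of the same variant are averaged.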

| Variant | log2 fold difference |
| --- | --- |
| T167D | 1.13 ± 2.6 |
| T167L | 1.02 ± 2 |
| T167Y | 0.173 ± 1.2 |
| T167H | 0.745 ± 2 |
| T167P | -1.47 ± 2 |
| T167A | 1 ± 2.2 |
| T167S | 0.639 ± 1.4 |
| T167V | 2.6 ± 2.4 |
| T167F | 1.13 ± 1.6 |
| T167N | 1.72 ± 1.8 |
| T167K | 1.56 ± 1.9 |
| T167E | 1.87 ± 1.9 |
| T167I | 2.18 ± 2.2 |
| T167M | 2.45 ± 1.7 |
| T167G | 0.61 ± 1.4 |
| T167R | 1.61 ± 2.3 |
| T167W | -0.553 ± 1.6 |
| T167C | 1.88 ± 1.9 |
| T167Q | 1.07 ± 1.2 |
| K172Y | 1.43 ± 2.1 |
| K172L | 1.5 ± 2.8 |
| K172I | 0.916 ± 1.9 |
| K172F | 0.61 ± 1.5 |
| K172R | 1.22 ± 1.9 |
| K172W | 0.492 ± 2.3 |
| K172T | -0.338 ± 2.5 |

| Variant | log2 fold difference |
| --- | --- |
| K172S | 1.04 ± 2 |
| K172H | -0.674 ± 2.9 |
| K172P | 0.431 ± 2 |
| K172N | 1.49 ± 2 |
| K172A | 0.388 ± 1.9 |
| K172Q | 1 ± 1.3 |
| K172G | 1.05 ± 1.8 |
| K172D | 0.406 ± 1.3 |
| K172C | 1.03 ± 1.7 |
| K172M | -0.568 ± 1.1 |
| K172V | 1.16 ± 2.3 |
| K172E | 0.864 ± 2.4 |
| D169F | 0.243 ± 2.1 |
| D169S | 1.49 ± 2 |
| D169G | 0.366 ± 1.3 |
| D169M | 2.33 ± 2.3 |
| D169H | 1.33 ± 1.9 |
| D169P | 1.93 ± 2.1 |
| D169N | 1.61 ± 1.9 |
| D169W | 0.201 ± 1.8 |
| D169K | 0.732 ± 1.9 |
| D169E | 1 ± 1.5 |
| D169L | 0.904 ± 1.5 |
| D169Q | 1.17 ± 2.7 |
| D169C | 0.981 ± 1.9 |
| D169V | 0.925 ± 1.4 |

| Variant | log2 fold difference |
| --- | --- |
| D169A | 0.667 ± 2.3 |
| D169R | 1.07 ± 1.9 |
| D169I | 0.624 ± 2.3 |
| D169T | 1.95 ± 2.7 |
| D169Y | 1.23 ± 1.6 |
| unchanged | 1.16 ± 2.2 |
| F168V | 0.604 ± 1.4 |
| F168C | 0.548 ± 2.3 |
| F168M | -0.549 ± 0.4 |
| F168S | 0.168 ± 2 |
| F168W | 0.947 ± 1.3 |
| F168D | -0.627 ± 2.2 |
| F168R | -0.242 ± 1.6 |
| F168E | -1.4 ± 1.9 |
| F168H | -0.292 ± 1.5 |
| F168G | -0.693 ± 1.8 |
| F168Q | -0.713 ± 2.4 |
| F168Y | 1.15 ± 0.32 |
| F168I | 0.0357 ± 1.1 |
| F168N | 0.373 ± 1.7 |
| F168A | 0.387 ± 1.7 |
| F168P | -1.55 ± 0.89 |
| F168L | 0.676 ± 1.8 |
| F168T | 0.163 ± 2.2 |
